In PubChem BioAssay AID1347120 (National Center for Advancing Translational Sciences (NCATS), 2019):
Where “and” joins values, the source holds several entries; their conditions need not be identical. Equal entries are not always repeated. About 930 (0.24%) of roughly 390,000 compounds were called active. Inconclusive means that the source gave no clear call. Such entries were picked first, then a sample of the others. Calls follow the shape of the dose curve; as a rule, active = well fitted activation curve with a large enough effect; inconclusive = small, poorly fitted or top-dose-only effect; inactive = no such curve, though single readings can be large or run the other way. Potencies beside an inconclusive call are fits to weak or partial responses and may not hold up.

Assay: qHTS for Suppressors of FUS Proteinopathy: Primary screen using FUS-linked yeast assay; also: nearly all actives have a fitted effect of over 55% in size
Conditions: S. cerevisiae FUS-expressing, OD600, 24 h; Potency: growth rescue; series mostly up to 76.6 µM
Summary of the method: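 Yeast FUS proteinopathy model; galactose-induced FUS (2%), starting OD 0.005. Cpds in dilution series, 24hr, 30C, 99% humidity. Abs 600 nm growth. Pos ctrl CP55940 (top 92uM final); neg ctrl DMSO.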
Potency is read from the fitted curve at half-maximal effect; tags tell the direction and shape of the fitted curve.

Row | SMILES | Potency
1 | Cc1ccc(NC(=O)C2CCN(S(=O)(=O)c3ccc4c(c3)NC(=O)C(C)S4)CC2)cc1Cl (stereo unspecified) | inconclusive: 11.2 µM [activator, single point]
2 | Cc1cc(C(=O)N2CCC(Cc3ccccc3)CC2)ccc1[N+](=O)[O-] | active: 11.2 µM
3 | Cc1cccc2[nH]c3c(N4CC=C(c5ccc(F)cc5)CC4)ncnc3c12 | inconclusive: 28.2 µM [activator, single point]
4 | CCN(C(=O)COC(=O)c1cc2ccccc2cc1OC)c1c(N)n(Cc2ccccc2)c(=O)[nH]c1=O | inconclusive: 31.6 µM [activator, single point]
5 | Cc1ccc(-c2cc3nc(NCCc4ccncc4)n(C)c(=O)c3s2)cc1 | inconclusive: 28.2 µM [activator, partial curve, poor fit]
6 | COc1ccc2sc(N(Cc3cccnc3)C(=O)CCc3ccccc3)nc2c1 | inconclusive: 25.1 µM [activator, partial curve, poor fit]
7 | O=C(O)CN1C(=O)CSC1=S | inactive
8 | CCOC(=O)N1CCC(N(CCN(C)C)C(=S)Nc2ccc(Oc3ccccc3)cc2)CC1 | inactive
9 | O=C(NCCc1c[nH]c2ccccc12)[C@H](Cc1c[nH]c2ccccc12)NC1(C(=O)NC2CCCCC2)CCCCCCC1 | inactive
10 | O=C(COC(=O)CC12CC3CC(CC(C3)C1)C2)Nc1ncc(Cl)cc1Cl | inconclusive: 25.1 µM [activator, partial curve, poor fit]
11 | COC(=O)[C@@]1(Cc2ccc(OC)cc2)[C@H]2c3cc(C(=O)N4CCCC4)n(Cc4ccccn4)c3C[C@H]2CN1C(=O)c1ccccc1 | inconclusive: 15.8 µM [activator, partial curve, poor fit]
12 | O=C1Cc2cc(S(=O)(=O)Nc3ccc(OC(F)(F)F)cc3)cc3c2N1CCC3 | inconclusive: 25.1 µM [activator, partial curve, poor fit]
13 | c1cncc(CNCc2ccco2)c1 | inconclusive: 50.1 µM [activator, single point]
14 | CC(=O)Nc1ccc(OCC(O)Cn2cnc3ccccc32)cc1 (stereo unspecified) | inactive
15 | NNC(=O)CNC(c1ccccc1)c1cc(Br)ccc1NC(=O)c1ccccc1Br (stereo unspecified) | inconclusive: 31.6 µM [activator, single point]
16 | C[C@H](NC(=O)OC(C)(C)C)C(=O)N/N=C/C1=Cc2ccccc2OC1 | inactive
17 | CCOC(=O)c1cc(-c2ccc(OC)c(S(=O)(=O)N3CCN(c4ccccc4)CC3)c2)on1 | inactive
18 | CCN(CC)C(=O)CSc1nc(O)cc(=O)n1-c1ccccc1OC | inconclusive: 14.1 µM [activator, partial curve, poor fit]
19 | CCC(Nc1ccc(-c2nc(-c3cccnc3)no2)cc1[N+](=O)[O-])c1ccccc1 (stereo unspecified) | inactive
20 | COc1cccc(CNc2cc(CSc3ccc(Cl)cc3)nc(C)n2)c1 | inconclusive: 3.16 µM [activator, full curve]
21 | O=c1[nH][nH]c2c1[C@@H](c1ccc(F)cc1)O[C@H](C1CCCCC1)C2 | inactive

Row | SMILES | Potency
22 | CC(=O)Nc1ccc(Nc2ccc3cc(S(=O)(=O)N4CCCCC4)ccc3n2)cc1 | inactive
23 | O=C(CSc1nc2scc(-c3ccco3)c2c(=O)n1-c1ccccc1)NCC1CCCO1 (stereo unspecified) | inconclusive: 28.2 µM [activator, partial curve, poor fit]
24 | Cc1c(/C=N/Nc2nc3ccccc3[nH]2)c2ccccc2n1C | inconclusive: 39.8 µM [activator, single point]
25 | O=c1c2cc3cccnc3nc2ncn1CCc1c[nH]c2ccccc12 | inactive
26 | COc1cc(NC(=O)c2ccno2)cc(C(=O)Nc2cccc(C(F)(F)F)c2)c1 | inconclusive: 28.2 µM [activator, single point]
27 | C=CC[C@H](CC(=O)NCCO)C(=O)N[C@H](COC(=O)[C@@H](CC=C)CC(=O)OC(C)(C)C)Cc1ccccc1 | inconclusive: 14.1 µM [activator, partial curve]
28 | CCOCCOC(=O)c1ccc2c(c1)N(Cc1ccccc1C#N)C(=O)c1ccccc1S2(=O)=O | inconclusive: 15.8 µM [activator, partial curve, poor fit]
29 | Nc1sc(-c2ccccc2)cc1C(=O)N1CCN(c2ccccc2)CC1 | inactive
30 | CCN(c1ccccc1)S(=O)(=O)c1ccc(NC(=O)c2nc(S(C)(=O)=O)ncc2Cl)cc1 | inconclusive: 35.5 µM [activator, single point] and inconclusive: 12.6 µM [activator, partial curve]
31 | COc1ccc(-c2cc3ccc(O)c(CN4CCN(C)CC4)c3oc2=O)cc1OC | inactive
32 | COC(=O)c1cc2c(-c3ccccc3)c(C)c3ccccn3c-2c1C(=O)OC | inconclusive: 50.1 µM [activator, single point]
33 | Cc1ccc(-c2nc3ccc(Br)cn3c2Cc2cccc(F)c2)cc1 | inconclusive: 50.1 µM [activator, single point]
34 | CCc1nc2ccc(C(=O)N3CCN(c4cccc(Cl)c4)CC3)cc2nc1CC | inconclusive: 50.1 µM [activator, single point]
35 | O=C(c1ccco1)N1CCN(C(c2ccc(Cl)cc2)c2nnnn2Cc2ccccc2)CC1 (stereo unspecified) | inconclusive: 35.5 µM [activator, single point]
36 | O=C(COc1ccccc1Cl)N1N=C(c2cccs2)CC1c1ccco1 (stereo unspecified) | inconclusive: 50.1 µM [activator, single point]
37 | COc1ccc(C)cc1NC(=O)/C=C/c1ccc(OC)c(S(=O)(=O)N2CCOCC2)c1 | inconclusive: 28.2 µM [activator, partial curve]
38 | NC(=O)CC(NC(=O)Cc1ccc(Br)cc1)c1ccc(NC2CC3CCC2C3)c([N+](=O)[O-])c1 (stereo unspecified) | inconclusive: 31.6 µM [activator, single point]
39 | CC1CC(C)(C)Nc2ccc(OC(=O)c3ccco3)cc21 (stereo unspecified) | inactive
40 | CC(NC(=O)Cc1cccs1)c1ccccc1 (stereo unspecified) | inactive
41 | COc1ccc(N2CCN(C(=O)c3ccc(NS(=O)(=O)c4ccc(F)cc4)cc3)CC2)cc1 | inconclusive: 39.8 µM [activator, single point]
42 | COc1cc(C2NC(=O)NC(C)=C2C(=O)OC2CCCC(C)C2)ccc1O (stereo unspecified) | inconclusive: 12.6 µM [activator, partial curve, poor fit]

Row | SMILES | Potency
43 | O=C(O)CC(C(=O)O)N1C(=O)/C(=C/c2ccc(-c3nc4ccccc4s3)o2)SC1=S (stereo unspecified) | inconclusive: 7.08 µM [activator, partial curve]
44 | N#C/C(=C/c1ccc(N2CCCCCC2)o1)c1ccc(Cl)cc1 | active: 22.4 µM
45 | COc1cccc(Cn2c(C(C)n3c(-c4cnccn4)nc4ccccc43)nc3ccccc32)c1 (stereo unspecified) | inconclusive: 15.8 µM [activator, single point]
46 | CC1(C)C(=O)Nc2ccccc2N1C(=O)COC(=O)Cc1ccc(Cl)c(Cl)c1 | inconclusive: 28.2 µM [activator, partial curve]
47 | CCc1ccc(CNCc2c(C(=O)O)n(Cc3ccc(C)cc3)c3cc(C)ccc23)cc1 | inconclusive: 31.6 µM [activator, single point]
48 | Cc1cc(C)n(C(=O)CCC2COc3ccccc3O2)n1 (stereo unspecified) | inactive
49 | Cc1cc(-n2c(=S)sc3c(=O)n(-c4ccc(F)cc4)c(SCC(=O)O)nc32)ccc1Cl | inactive
50 | N#Cc1cccnc1N1CCN(C(c2ccnc3ccccc23)c2nnnn2-c2ccc3c(c2)OCCO3)CC1 (stereo unspecified) | inconclusive: 31.6 µM [activator, single point]
51 | O=C(Nc1ccc(S(=O)(=O)N2CCOCC2)cc1)C1CCN(S(=O)(=O)c2ccc(Cl)cc2)CC1 | inconclusive: 28.2 µM [activator, single point]
52 | COc1ccc(C2C(C(=O)N3CCN(c4ccccc4Cl)CC3)CC(=O)N2c2ccc(OC)cc2)cc1 (stereo unspecified) | inconclusive: 15.8 µM [activator, partial curve, poor fit]
53 | CCOC(=O)N1CCC(NC(=O)C2CCN(C(=O)c3cc4oc(C)cc4n3Cc3c(F)cccc3Cl)CC2)CC1 | inconclusive: 22.4 µM [activator, single point]
54 | O=C(C1=C(O)C(=O)N(Cc2ccco2)C1c1cccc(Cl)c1)c1ccco1 (stereo unspecified) | inconclusive: 39.8 µM [activator, single point]
55 | Cn1c(SCC(=O)NC(=O)NCc2ccco2)nnc1-c1ccccc1 | inconclusive: 11.2 µM [activator, single point]
56 | CCOC(=O)c1ccccc1NC(=O)COc1ccccc1-c1nnc(-c2ccccc2)o1 | inconclusive: 35.5 µM [activator, single point]
57 | COc1ccc(CNC(=O)c2ccc(NC(=O)N3CCSc4ccccc43)cc2)cc1 | inactive
58 | COc1ccccc1N1C(=O)CC(N2CCc3ccccc32)C1=O (stereo unspecified) | inconclusive: 31.6 µM [activator, single point]
59 | COC(=O)[C@]12C[C@H](CC(=O)NCCc3ccccc3OC)C(=O)N(Cc3ccc(Cl)cc3Cl)C1=C[C@H](C(C)C)O[C@@H]2C1CC1 | inconclusive: 20 µM [activator, single point]
60 | CCC(=O)N1Cc2cc(C(=O)NCc3cccc(F)c3)nc(-c3cccc(C4=CCCC4)c3)c2[C@H]1CCO | inconclusive: 50.1 µM [activator, single point]
61 | C[C@H]1CCCCO[C@@H](CN(C)C(=O)NC2CCCCC2)[C@@H](C)CN([C@@H](C)CO)C(=O)c2cc(NC(=O)Cc3ccccc3)ccc2O1 | inconclusive: 28.2 µM [activator, single point]
